Some of the results follow.

The test system of this assay is T1, C. trachomatis L2/434/Bu expressing GFP (CTL2-GFP).
T1 construct: L2/434/Bu GFP intracellular growth in HeLa cells
On the set-up: species or system HeLa; C. trachomatis total inclusion area by high-content imaging, normalised to DMSO. Conditions: total inclusion area; 28.5 h, 10 µM; inhibitor. The procedure, abridged:
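High-content imaging followed the bulk GFP/resorufin measurement: fixed, Hoechst-stained cells were scored for GFP inclusions and host nuclei per well. Total inclusion area and count served as growth proxies, nuclei number as the viability proxy. MIC calculation matched the bulk assay.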
With `CCN(CC)CCOc1cc(=O)oc2ccccc12` [CBK022747C], the “% of control remaining” value is 102.874.

Consider `O=C(NC1(c2ccccc2)CC1)c1cccc(-n2cnnc2)c1` [CBK282779], for which the “% of control remaining” value is 74.0472.

Turning to `COc1cc(/C=N/NC(=O)CSc2n[nH]c(=O)[nH]c2=O)ccc1O` [CBK263513], the “% of control remaining” value was determined as 72.3111.

For the compound `CSc1ncc(C(=O)N2CCC(N3CCCC(O)C3)CC2)cn1` (stereo not shown) [CBK307055], the “% of control remaining” value stood at 26.619.

For `O=C(Nc1sc2c(c1C(=O)O)CCC2)c1ccco1` [CBK152436], the “% of control remaining” value amounted to 98.5581.

Take `NCC1CCN(c2cc(C(F)(F)F)c3scc(C(=O)NCCC4=CCCCC4)c3n2)CC1` [CBK028475]: the “% of control remaining” value stood at 46.9159.

Take `O=C(NC1CCCOC1)c1cc(-c2ccc(F)cc2)no1` (stereo not shown) [CBK283141]: the “% of control remaining” value turned out to be 86.6841.

As for `CN(Cc1nnc(C2CC2)n1C)C1CCN(CCCc2cn[nH]c2)C1` (stereo not shown) [CBK305305], the “% of control remaining” value turned out to be 54.2299.

As to `CN(CCCc1cc(-c2cccc(F)c2)n[nH]1)C(=O)c1cnn(C)c1` [CBK305745], the “% of control remaining” value is on record as 106.712.

`COc1cccc(C2C(C(=O)c3ccc(Br)cc3)=C(O)C(=O)N2CCN2CCOCC2)c1OC` (stereo not shown) [CBK264855]: the “% of control remaining” value was found to be 109.499.

Consider `O=C1COc2ccccc2C/C=C/CC2(CCN(C(=O)CCn3ccnc3)CC2)CN1` [CBK292131], for which the “% of control remaining” value was determined as 111.457.

With `Nc1ncnc2c1cnn2[C@H]1C[C@@H](O)[C@@H](CO)O1` [CBK201325], the “% of control remaining” value amounted to 104.268.

Turning to `CC(C)(C)NC(=O)CN1CCC(c2ccc(F)cc2)CC1` [CBK283629], the “% of control remaining” value came to 95.921.

For the compound `Cc1cc(CN(C)Cc2c(C)nc3c(C)cccn23)n[nH]1` [CBK281716], the “% of control remaining” value is reported as 100.277.

In the case of `CC(=O)c1ccc(O)c2ncccc12` [CBK015821], the “% of control remaining” value amounted to 97.8541.

Regarding `Cc1cc(C(=O)NCc2ccnc(N3CCOCC3)c2)c(C)n1-c1cccc(Cl)c1` [CBK298301], the “% of control remaining” value is 91.6223.

On to `COc1ccc(-c2cc(C(=O)NCc3ccc(N)cc3)cnc2-c2cccc(C)c2)cc1` [CBK036728], for which the “% of control remaining” value was 119.917.

For the compound `Cc1cc(C)c(S(=O)(=O)Nc2ccc(S(=O)(=O)Nc3ccc(Cl)cc3Cl)cc2)c(C)c1` [CBK266022], the “% of control remaining” value came out at 63.7914.

Turning to `Cc1ccc(C2(CN3CCN(Cc4cnn(C)c4)CC3)CC2)cc1` [CBK282480], the “% of control remaining” value is 115.156.

On to `CN(C)CCCNc1ccc(-c2n[nH]c(=O)c3ccccc23)cc1[N+](=O)[O-]` [CBK266200], for which the “% of control remaining” value is 124.371.

Take `CC(C)(C)OC(=O)NCCc1ccc(Nc2cc(-c3ccsc3)ncn2)cc1` [CBK090958]: the “% of control remaining” value came out at 82.966.

Regarding `COc1cccc(CN2CCC3(CC2)c2[nH]c4ccc(OCc5ccccc5)cc4c2CCN3C=O)c1` [CBK040462], the “% of control remaining” value was 90.7189.

Take `CCc1nc2c(OCCOc3ccccc3)cccn2c1N(C=O)CC(=O)N(C)C` [CBK147510]: the “% of control remaining” value is 98.5386.

Consider `CC(C)N1CCC(CNC(=O)Cn2ccc3ccc(F)cc32)CC1` [CBK282571], for which the “% of control remaining” value was 114.329.

On to `c1coc(CNc2ncc(-c3ccc(N4CCOCC4)cc3)n3ccnc23)c1` [CBK091220], for which the “% of control remaining” value came to 58.8764.

In the case of `c1cnc(-c2nnn[nH]2)c(-c2ccc(COc3ccc4c(c3)OCO4)cc2)n1` [CBK050812], the “% of control remaining” value worked out at 92.1926.

`Cc1cc(O)c(C(C)C)cc1N1C(=O)c2ccc([N+](=O)[O-])cc2C1=O` [CBK115323]: the “% of control remaining” value came to 101.814.

Regarding `Cn1c(=O)c2c(nc(NCc3ccc4c(c3)OCO4)n2Cc2cccc(Cl)c2)n(C)c1=O` [CBK074359], the “% of control remaining” value turned out to be 90.6982.

Take `OC(COc1ccccc1F)CSc1nc(NC2CC2)c2ccccc2n1` (stereo not shown) [CBK297902]: the “% of control remaining” value amounted to 82.7612.

On to `CCOC(=O)c1c(NC(=O)NCc2cccnc2)sc2c1CCC2` [CBK307585], for which the “% of control remaining” value was 67.5294.

Take `COc1cccc(OCC(=O)Nc2ccccc2C(=O)O)c1` [CBK286819]: the “% of control remaining” value worked out at 103.329.

For the compound `O=C(CO)N1CC2(CCN(CCS(=O)(=O)c3ccccc3)CC2)c2ccccc21` [CBK131505], the “% of control remaining” value is listed as 90.9661.

In the case of `COc1cc(-c2ccc(Nc3cccnc3)nc2)cc(OC)c1OC` [CBK037704], the “% of control remaining” value is reported as 148.628.

With `CCc1nc2ccc(NC(=O)CCCc3ccncc3)cc2[nH]1` [CBK283268], the “% of control remaining” value was 84.3141.

For `COc1ccc(C2OCCN2C(C)=O)cc1` (stereo not shown) [CBK004536], the “% of control remaining” value was found to be 106.999.

Take `COc1ccc(C(C)C)cc1-c1cncc(N(C)CCN(C)C)n1` [CBK065364]: the “% of control remaining” value turned out to be 79.7919.

`CC(C)OC(=O)c1nnn(-c2nonc2N)c1CN1CCCCCC1` [CBK027601]: the “% of control remaining” value is 94.34.

In the case of `FC(F)(F)c1cccc(CN2CCN(CCc3ccccc3)CC2)c1` [CBK126421], the “% of control remaining” value is reported as 92.62.

Turning to `NC(=O)[C@H]1C[C@@H](O)[C@H](O)[C@H]2[C@@H]1S/C(=N\c1ccccc1)N2Cc1cccs1` [CBK288944], the “% of control remaining” value was found to be 100.375.

`Cc1c(-c2cc(-c3cnn(C)c3C)[nH]n2)cnn1C` [CBK288013]: the “% of control remaining” value worked out at 115.34.

As to `COc1ccc(S(=O)(=O)N2CCC(C(=O)N(C)C(c3cnccn3)c3ccccc3C)CC2)cc1` (stereo not shown) [CBK060210], the “% of control remaining” value was 85.1344.

With `O=C(O)c1cc(NC(=O)c2ccccc2[N+](=O)[O-])cc(C(=O)O)c1` [CBK262135], the “% of control remaining” value is on record as 106.667.

As for `CCn1c(C(C)C)nc2cc(NC(=O)Cc3c(C)noc3C)ccc21` [CBK281527], the “% of control remaining” value is on record as 98.1268.

`CCn1nc(C)c(C(C)NC(=O)c2ccn(C(F)F)n2)c1C` (stereo not shown) [CBK281534]: the “% of control remaining” value worked out at 93.226.

For the compound `CC(C)c1ccc(/C=C/C(=O)NCc2ccc(S(N)(=O)=O)cc2)cc1` [CBK161511], the “% of control remaining” value is given as 102.499.

As to `Nc1[nH]ncc1-c1nnc(Nc2ccc3c(c2)OCO3)o1` [CBK288537], the “% of control remaining” value turned out to be 111.645.

For the compound `COc1ccc(C(C)C)cc1-c1cncc(NCC(c2cccnc2)N(C)C)n1` (stereo not shown) [CBK037132], the “% of control remaining” value was 102.314.

Take `CNC(=S)NCc1ccncc1` [CBK020033]: the “% of control remaining” value is 63.5931.

In the case of `COc1ccccc1N(CC(O)CN1C(C)CCCC1C)S(=O)(=O)c1ccccc1` (stereo not shown) [CBK265585], the “% of control remaining” value amounted to 102.731.

In the case of `COCCn1c(CN2CCC(Cc3ccccc3)CC2)nc2c1c(=O)n(C)c(=O)n2C` [CBK269378], the “% of control remaining” value was determined as 94.605.

On to `COCCNC(=O)N[C@H](Cc1ccccc1)C(=O)O` [CBK286667], for which the “% of control remaining” value is 96.5056.

On to `NC(=O)CN1C(=O)CO[C@H]2CN(Cc3cnc4ccccc4c3)C[C@H]21` [CBK289242], for which the “% of control remaining” value is 113.192.

`CCOc1ccc(C)cc1S(=O)(=O)NCCc1c(C)[nH]c2c(Cl)cccc12` [CBK268859]: the “% of control remaining” value came to 107.77.

For `CC(C)c1ccc(C(C)NC(=O)Cn2cc(C(=O)Nc3ccc(F)cc3)ccc2=O)cc1` (stereo not shown) [CBK286049], the “% of control remaining” value is reported as 102.363.

With `CC(C)(C)OC(=O)N1CCN(c2cc(NCc3ccccc3)ncn2)CC1` [CBK000137], the “% of control remaining” value is 89.2488.

As for `Cc1nccn1CC1(O)CCN(C(=O)CCc2ccccc2F)CC1` [CBK284689], the “% of control remaining” value worked out at 116.828.

With `CCOc1ccc(-c2nnn(CC(N)=O)n2)cc1` [CBK068283], the “% of control remaining” value came to 88.6408.

On to `Nn1c(SCC(=O)Nc2ccc3c(c2)OCO3)nnc1-c1ccccn1` [CBK267550], for which the “% of control remaining” value came to 98.7193.

As for `CCOC(=O)c1sc(-c2ccccc2)nc1C` [CBK074204], the “% of control remaining” value was 85.8756.

On to `Cn1ccc(NC(=O)c2cccc(S(=O)(=O)N3CCCC3)c2)n1` [CBK306032], for which the “% of control remaining” value came to 50.2602.

Regarding `O=C(CSc1n[nH]c(=O)n1C1CC1)NCCCSc1ccccc1` [CBK295620], the “% of control remaining” value was found to be 94.4371.

Consider `Cn1nccc1CN1CCOC(c2nc(C(C)(C)C)cs2)C1` (stereo not shown) [CBK304690], for which the “% of control remaining” value was determined as 85.2087.

For the compound `c1ccc2c(c1)CC(Oc1cncc(N3CCNCC3)n1)C2` [CBK000242G], the “% of control remaining” value is 44.8954.

On to `O=C(/C=C/c1cccnc1)Nc1cncc(OC2CCNCC2)n1` [CBK038919T], for which the “% of control remaining” value is on record as 101.529.

Take `CC1(C)C[C@H](NC(=O)c2cccs2)[C@@]2(CCC(=O)N3CCCC3)CC[C@](C)(O)C[C@@H]12` [CBK289042]: the “% of control remaining” value is 92.3533.

Take `CC(C)(C)OCc1[nH]n(CCc2ccccc2)c(=O)c1Cc1c(Cl)cccc1Cl` [CBK091452]: the “% of control remaining” value is 92.7148.

On to `Cc1cc(Cl)ccc1NC(=O)CCC(=O)N/N=C/c1cccnc1` [CBK261945], for which the “% of control remaining” value was 64.2554.

Take `C[C@@H]1CN2CCCC2CN1CCc1ccccc1` (stereo partly shown) [CBK285424]: the “% of control remaining” value is 93.3647.

Regarding `O=C(Nc1cccnc1)c1cc(C(=O)c2ccc(Cl)cc2Cl)c[nH]1` [CBK107406], the “% of control remaining” value is reported as 75.3398.

On to `Cc1ncc(CN2CCCC(O)(c3ccc(F)cc3)CC2)n1C` (stereo not shown) [CBK284836], for which the “% of control remaining” value stood at 89.9896.

As to `Cc1cc(NS(=O)(=O)c2ccc(-c3ccon3)s2)n(C)n1` [CBK067257], the “% of control remaining” value came out at 134.422.

For `O=C(O)c1cc(NS(=O)(=O)c2ccc3c(c2)OCCCO3)ccc1F` [CBK296731], the “% of control remaining” value amounted to 75.1319.

For the compound `COc1cccc(-c2ccc3ccc(N)nc3n2)c1` [CBK061640], the “% of control remaining” value came to 105.786.

For `CC(C)n1nnnc1-c1ccccc1NS(=O)(=O)c1cn[nH]c1` [CBK305542], the “% of control remaining” value was found to be 55.1806.

In the case of `CCOC(=O)N1CCN(S(=O)(=O)c2ccc3c(c2)n(C)c(=O)n3C)CC1` [CBK304620], the “% of control remaining” value is on record as 31.2386.

In the case of `O=C(Nc1ccccn1)NC1CCS(=O)(=O)C1` (stereo not shown) [CBK021330], the “% of control remaining” value turned out to be 81.6954.

Regarding `COc1ccc(C(NC(=O)C2CCN(CCOc3ccc(Br)cc3)CC2)c2ccco2)cc1` (stereo not shown) [CBK148311], the “% of control remaining” value is given as 95.7037.

Turning to `CC(=O)c1cnc2nc(-c3cccnc3)nn2c1C` [CBK287859], the “% of control remaining” value came to 89.2056.

As for `CC(=O)Nc1ccc(S(=O)(=O)Nc2nc3ccccc3nc2Nc2ccc(C(=O)O)cc2)cc1` [CBK296079], the “% of control remaining” value was 99.1418.
